# Results reported in PubChem BioAssay AID624171 (National Center for Advancing Translational Sciences (NCATS), 2012).
# The whole screen tested about 410,000 compounds, of which about 1,200 (0.29%) were called active. This list was built around the results that the source calls inconclusive (neither active nor inactive); the mix of calls is not that of the screen. Calls come from the whole dose curve; as a rule, active = well fitted activation curve with a large enough effect; inconclusive = small, poorly fitted or top-dose-only effect; inactive = flat fitted curve, though single readings scatter. Where the call is inconclusive, the potency comes from a doubtful curve fit.
# Assay: qHTS of Nrf2 Activators; note: nearly all actives have a fitted effect of over 65% in size; for activation: % of control where 0% means no effect
# Conditions: AREc32 ARE-luciferase reporter (MCF7-derived line), luminescence, 24 h; activation: at 46.1 µM (top of the series)
# Procedure, shortened: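 Luciferase luminescence (Steady-Glo, 30 min at room temperature) served as the read-out of ARE activation in AREc32 cells treated with compounds for 24 hr at 37 deg C.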
# Potency is the fitted concentration of half-maximal effect; tags give direction and shape of the fitted curve.
SMILES,activation,Potency
CCn1c(SCC(=O)Nc2nccs2)nnc1-c1ccc(S(=O)(=O)N2CCCCC2)cc1,inactive: -0.583%,–
CCCCC(=O)/C=C/n1c(=S)oc2ccccc21,–,active: 10 µM
Cc1nc2ccc(NC(=O)c3cccs3)cc2s1,–,"inconclusive: 20 µM [activator, single point]"
CCC1CCCCN1CCCNC(=O)c1cc2c(Cl)nc3ccccc3c2s1 (stereo not given),–,"inconclusive: 25.1 µM [activator, single point]"
CCc1nc2c(c(SC)nn2-c2ccccc2)c(N)c1C(=O)OC,inactive: 0.861%,–
O=C(COC(=O)c1nc(Cl)c(Cl)c(Cl)c1Cl)c1ccc[nH]1,–,active: 22.4 µM
O=C(Nc1cc(-c2nc3ncccc3o2)ccc1Cl)c1ccc([N+](=O)[O-])o1,–,"inconclusive: 3.55 µM [activator, partial curve, poor fit]"
CCOc1cc(CNc2ccc(O)cc2)ccc1OCc1ccc(Cl)cc1,–,"inconclusive: 8.91 µM [activator, partial curve]"
CCCN(CC1CC1)C(=O)CSc1ncnc2sc(C)c(C)c12,inactive: 0.557%,–
CCN1CCN(c2c(S(=O)(=O)c3ccc(C)c(C)c3)cnc3cc(OC)c(OC)cc23)CC1,inactive: 9.25%,–
FC(F)(F)c1ccc(Cl)c(NC(=S)N/N=C/c2ccccc2Cl)c1,–,"inconclusive: 8.91 µM [activator, partial curve, poor fit]"
COc1cc(NC(=O)CCl)ccc(=O)c1,–,"inconclusive: 7.08 µM [activator, partial curve]"
CCCCC1(CO)C(=O)N(c2ccccc2)N(c2ccccc2)C1=O,inactive: -0.113%,–
Cn1c(Cl)cnc1C1CC(=O)c2cc(Cl)ccc2O1 (stereo not given),–,"inconclusive: 3.55 µM [activator, single point]"
O=S(=O)(c1ccc(N=C2NN=C(c3cc(F)ccc3F)CS2)cc1)N1CCOCC1,inactive: 14%,–
Cc1ccc[n+](CC(=O)c2ccc(Br)cc2)c1,inactive: 0.655%,–
CC(=O)c1c(N2CCOCC2)[nH]c(-c2ccccc2)nc1=S,inactive: 0.392%,–
COc1ccc(C(=O)CSc2nnc(CNC(=O)c3ccc(S(=O)(=O)N(C)C)cc3)o2)cc1,inactive: -0.429%,–
CC(C)/C=C(/C(=O)c1ccc(Cl)cc1Cl)n1cncn1,–,"inconclusive: 17.8 µM [activator, single point]"
COCCN1Cc2c(sc(C)c2C)N(C(=O)c2ccccc2)C1,–,"inconclusive: 12.6 µM [activator, partial curve, poor fit]"
COc1cccc(C(=O)Nc2cc(C)c3c(=O)oc4ccccc4c3n2)c1,–,"inconclusive: 2.51 µM [activator, full curve, poor fit]"
Cc1ccc(/C=C/C(=O)Nc2nnc(SCc3ccc(C#N)cc3)s2)o1,–,"inconclusive: 0.631 µM [activator, full curve, poor fit]"
O=C(Nc1ccc(Br)cn1)c1ccc([N+](=O)[O-])o1,–,"inconclusive: 3.16 µM [activator, partial curve, poor fit]"
CCC(C)N(CCNC(=O)c1ccc2c(c1)NC(=O)c1ccccc1S2)C1CCCCC1 (stereo not given),inactive: -0.913%,–
O=C(Cc1cccs1)N/N=C/C=C/c1ccco1,–,active: 12.6 µM

SMILES,activation,Potency
CCCn1c(=NC(=O)CCS(=O)(=O)c2ccccc2)sc2cc(S(N)(=O)=O)ccc21,–,"inconclusive: 22.4 µM [activator, single point]"
CCOC(=O)CC1C(=O)NCCN1C(=O)c1cc2c(=O)n3cccc(C)c3nc2s1 (stereo not given),–,"inconclusive: 35.5 µM [activator, partial curve, poor fit]"
COc1ccc(/C=C/C(=O)c2ccc(OC)cc2O)cc1,–,"inconclusive: 31.6 µM [activator, single point]"
CC1(C(=O)NS(=O)(=O)c2ccc(Br)cc2)CCN1C(=O)Cc1cccs1 (stereo not given),inactive: -0.314%,–
O=C(CSc1nnc(-c2cccnc2)o1)c1cc2ccccc2oc1=O,–,active: 7.08 µM
O=[N+]([O-])c1cc(/C=N/NC(=S)Nc2ccccc2Cl)ccc1Cl,–,"inconclusive: 35.5 µM [activator, partial curve, poor fit]"
O=C(CCS(=O)(=O)c1nc(-c2cccs2)cc(C(F)(F)F)n1)Nc1ccc(OC(F)(F)F)cc1,–,"inconclusive: 15.8 µM [activator, single point]"
Cc1cc(C)n(C(=O)/C=C/c2cccs2)n1,–,"inconclusive: 28.2 µM [activator, single point]"
CCN(CC)CC#CCOC(=O)C(O)(c1ccccc1)C1CCCCC1 (stereo not given),inactive: 4.31%,–
CSc1nnc(NC(=O)c2ccc(S(=O)(=O)N(C)C)cc2)s1,inactive: 1.81%,–
Cn1c(SCC(=O)N2c3ccccc3Sc3ccc(Cl)cc32)nnc1-c1ccco1,inactive: 0.198%,–
O=C(NCCc1ccccc1F)c1cccc2cccnc12,–,"inconclusive: 17.8 µM [activator, single point]"
COC(=O)Nc1nc2c(C)cccc2s1,–,"inconclusive: 15.8 µM [activator, partial curve, poor fit]"
O=Cc1cc(OCc2ccccc2)ccc1[B-](F)(F)F,–,"inconclusive: 3.55 µM [activator, full curve, poor fit]"
Cc1ccc2nc(NC(=O)c3ccc(Br)o3)sc2c1,–,"inconclusive: 12.6 µM [activator, partial curve]"
O=C(N/N=C/c1ccco1)Nc1ccccc1,–,"inconclusive: 2.82 µM [activator, full curve]"
Cc1ccccc1NC(=O)CSc1ccc(-c2ccco2)nn1,–,"inconclusive: 11.2 µM [activator, partial curve, poor fit]"
CC(C)OCCCNC(=O)c1ccc2c(c1)NC(=O)c1ccccc1S2,–,inactive
Cc1cc2c(N=O)c(NO)ccc2[nH]1,–,"inconclusive: 5.01 µM [activator, single point]"
N#CC1=C(N)N(c2ccccc2)C2=C(C(=O)CCC2)C1c1ccsc1 (stereo not given),–,"inconclusive: 15.8 µM [activator, single point]"
CCc1noc(C)c1C(=O)Nc1nc(-c2cccs2)cs1,–,"inconclusive: 12.6 µM [activator, single point]"
CCCNC(=O)c1ccc(N2CCC3(CC2)CC(c2cccc(Br)c2)=NO3)c(NC(=O)c2ccc(Br)cc2)c1,inactive: 0.521%,–
CCCCC(=O)OCC(=O)c1[nH]c(C)c(C(=O)OCC)c1C,inactive: -0.258%,–
CCCCNc1c(CC(C)C)nc2nc(C)cc(C)n12,inactive: 5.88%,–
CCCc1cc(=O)n(-c2nc3ccccc3s2)[nH]1,inactive: 0.063%,–

SMILES,activation,Potency
CC(=O)c1c(C)[nH]c(C(=O)CSc2nnc(-c3ccccc3)o2)c1C,inactive: 0.457%,–
COc1ccc2cc(C(=O)/C=C/c3cc(OC)c(OC)c(OC)c3)ccc2c1,–,"inconclusive: 22.4 µM [activator, single point]"
Cc1cc(C(=O)Nc2nc3c(s2)CCCC3)cs1,–,"inconclusive: 12.6 µM [activator, partial curve, poor fit]"
COc1ccc(C2NC(=O)N(C)C3=C2C(=O)N(c2cccc(Cl)c2)C3)cc1 (stereo not given),inactive: -0.38%,–
CCOC(=O)c1c(C)n(-c2ccc(C)cc2)c2c(C(C(C)=O)C(=O)O)c(Br)c(O)c(O)c12 (stereo not given),–,"inconclusive: 22.4 µM [activator, single point]"
Cc1cc(C)n2c(SCc3ccc(Br)cc3)nnc2n1,inactive: 5.05%,–
COc1ccc(C(=O)/C=C/c2ccc(OC3CSC3)cc2)cc1,–,"inconclusive: 35.5 µM [activator, single point]"
O=C1Nc2ccccc2SC1=Cc1ccccc1,–,"inconclusive: 6.31 µM [activator, full curve, poor fit]"
Oc1nc(Nc2ccc(F)cc2)sc1/C=C1\C=Nc2ccccc21,inactive: 19.2%,–
Cc1cc(C(F)(F)F)n2nc(-c3ccc(Br)cc3)cc2n1,–,"inconclusive: 11.2 µM [activator, partial curve, poor fit]"
COc1cc(OC)c(OC)cc1/C=C1/Cc2ccccc2C1=O,–,active: 5.62 µM
COc1ccc2ccccc2c1CN1CCN(C(=O)c2ccccc2)CC1,inactive: 2.62%,–
O=C(Nc1cccc(/C=C/c2ccccn2)c1)c1ccc(-n2cncn2)cc1,–,"inconclusive: 2.24 µM [activator, full curve, poor fit]"
Cc1cc(N/N=C/c2c(O)ccc3ccccc23)nc(-c2ccccc2O)n1,–,active: 7.08 µM
COc1ccccc1NC(=O)C(C)OC(=O)/C=C/c1ccc2ccccc2n1 (stereo not given),–,active: 17.8 µM
O=C(/C=C\c1ccc2c(c1)OCO2)CC1(O)C(=O)Nc2ccccc21 (stereo not given),–,"inconclusive: 7.08 µM [activator, partial curve, poor fit]"
Nc1nonc1-c1noc(-c2ccccc2Br)n1,–,"inconclusive: 22.4 µM [activator, single point]"
O=C(Nc1ccc(C(=O)N2CCN(c3cccc(Cl)c3)CC2)cc1)c1nsc2ccccc12,inactive: -0.0275%,–
Cc1ccc(C)c(NC(=S)c2nc3ccccc3s2)c1,–,"inconclusive: 2.82 µM [activator, full curve, poor fit]"
CCc1nnc(NC(=O)c2nc(S(=O)(=O)Cc3ccc(C)cc3)ncc2Cl)s1,–,inactive
CCOc1ccccc1N1CCN(c2ncnc3scc(-c4ccc(OC)cc4)c23)CC1,inactive: -0.56%,–
COC(=O)c1ccc(CSc2nc(-c3ccco3)cc(C(F)(F)F)n2)o1,–,"inconclusive: 35.5 µM [activator, single point]"
Clc1c(-c2ccccc2)nc2ccccn12,–,active: 11.2 µM
Cc1cccc(C(=O)Oc2cccc3c(O)cccc23)c1,–,"inconclusive: 10 µM [activator, partial curve]"
CC(=O)NS(=O)(=O)c1ccc(NC(=O)c2cccc(S(=O)(=O)N3CCc4ccccc43)c2)cc1,inactive: -0.131%,–
